# The campaign covered roughly 320,000 compounds. About 200 (0.062%) were called active. This list was built around the results that the source calls inconclusive (neither active nor inactive); the mix of calls is not that of the screen. Calls follow the shape of the dose curve; as a rule, active = well fitted activation curve with a large enough effect; inconclusive = small, poorly fitted or top-dose-only effect; inactive = no such curve, though single readings can be large or run the other way. No potency is given beside an inconclusive call; the fits are too rough.
# Experiment: qHTS assay for re-activators of p53 using a Luc reporter; also: nearly all actives have a fitted effect of over 45% in size; as to activity change, positive = activation: % of control where 0% means no effect
# Details: H1299 p53-A138V BP100-luciferase reporter, luminescence, 24 h; series mostly up to 92.2 µM; activity change, positive = activation: at the top concentration
# Summary of the method: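 p53-null H1299 cells stably carrying temperature-sensitive p53-A138V and a BP100-luciferase reporter were pinned with compounds (4-point, 1:5 series) and held 24 hrs at 37 deg C. Luminescence was read 10 min after detection reagent.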
# Potency is read from the fitted curve at half-maximal effect; tags tell the direction and shape of the fitted curve.
Compound,Potency,"activity change, positive = activation"
Nc1ccc(N=Nc2ccccc2)c(N)n1,"inconclusive [activator, partial curve, poor fit]",–
Cc1ccccc1NC(=O)Cn1cccc1,"inconclusive [activator, single point]",–
COc1ccc(C(=O)Nc2cccc(S(=O)(=O)N3CCCC3)c2)cc1S(=O)(=O)N1CCOCC1,–,inactive: -8.08%
CN(C)S(=O)(=O)c1ccc(C(=O)NCc2cccs2)cc1,–,inactive: -5.45%
O=[N+]([O-])c1ccc(N/N=C/c2ccccc2)cc1,"inconclusive [activator, partial curve, poor fit]",–
O=C(Nc1nc(-c2ccccc2)ns1)c1cccs1,"inconclusive [activator, partial curve, poor fit]",–
COC(=O)c1ccccc1-c1ccc(/C=N/Nc2nc(N3CCCC3)nc(N3CCCC3)n2)o1,–,inactive: -0.207%
CC(=O)c1cccc(NC(=O)c2cc(-c3ccco3)on2)c1,"inconclusive [activator, partial curve, poor fit]",–
C=CCC1(CC=C)CCCN1C(=O)Cn1nnnc1CN(C)C(C)C,"inconclusive [activator, single point]",–
CCCOc1ccc(CNC(=O)Cc2cccs2)cc1,"inconclusive [activator, single point]",–
COc1ccc(-c2nnc(NC(=O)c3ccc([N+](=O)[O-])o3)o2)c(OC)c1,–,inactive: 17.7%
CCOC(=O)CN1C(=O)NC2NC(=O)NC21 (centres undefined),"inconclusive [activator, single point]",–
CCN(CC)S(=O)(=O)c1cccc(-c2nnc(SCc3nc4ccccc4s3)o2)c1,"inconclusive [activator, partial curve, poor fit]",–
Fc1ccc(-n2nnc(-c3cccnc3Cl)n2)cc1,"inconclusive [activator, partial curve, poor fit]",–
Cc1ccccc1OCC(O)Cn1nnc2ccccc21 (centres undefined),"inconclusive [activator, partial curve, poor fit]",–
COc1ccc(/C(C)=N/N=C2/NC(=O)CC(C(=O)O)S2)cc1F (centres undefined),"inconclusive [activator, single point]",–
O=C(NNC(=S)NC1CCCCC1)c1cccs1,"inconclusive [activator, partial curve, poor fit]",–
CCN(CC)c1ccc(C(=O)OCC(=O)Nc2sccc2C#N)cc1,"inconclusive [activator, partial curve, poor fit]",–
Cc1cc(/C([O-])=C(/C(=S)Nc2ccc(F)cc2)[n+]2ccccc2)c(C)n1-c1ccc(F)cc1,"inconclusive [activator, single point]",–
Nc1ccc2nc(-c3ccc(-c4nc5ccc(N)cc5[nH]4)cc3)[nH]c2c1,–,inactive: 5.31%
Cc1ccc(/C=C/C(=O)c2ccc(C)cc2)cc1,"inconclusive [activator, partial curve, poor fit]",–
CN(C)c1ccc(/C=C2/SC(=O)N(CCN=C3NS(=O)(=O)c4ccccc43)C2=O)cc1,"inconclusive [activator, full curve, poor fit]",–

Compound,Potency,"activity change, positive = activation"
Cc1cc(Br)cc2c(C(=O)NCC3CCCO3)cc(-c3ccccc3)nc12 (centres undefined),"inconclusive [activator, single point]",–
C(#CC1CCCC1)c1ccc2c(c1)COc1c3ccccc3nn1-2,"inconclusive [activator, full curve, poor fit]",–
COc1ccc(NC(=O)Nc2cccc([N+](=O)[O-])c2)cc1Cl,"inconclusive [activator, partial curve, poor fit]",–
CC(=O)N1CCC(=NNC(=O)c2cccs2)CC1,"inconclusive [activator, partial curve, poor fit]",–
Cc1cc2c(c(=O)n1CCN(C)C)C(c1ccncc1)C(C#N)=C(N)O2 (centres undefined),"inconclusive [activator, single point]",–
CCOC(=O)Nc1ccc2nc(N3CCCCCC3)sc2c1,"inconclusive [activator, full curve, poor fit]",–
CCOc1ccccc1C1CC(=O)Nc2cc(OC)c(OC)cc21 (centres undefined),"inconclusive [activator, partial curve, poor fit]",–
COc1ccc2nc(N3CCCCC3)c(C#N)cc2c1,"inconclusive [activator, full curve, poor fit]",–
COc1ccc(/C=C/C(=O)c2c(C)nc3ccccn23)cc1,"inconclusive [activator, partial curve, poor fit]",–
CCN1CCN(S(=O)(=O)c2ccc(C(=O)Nc3sc4c(c3C(N)=O)CCN(CC)C4)cc2)CC1,"inconclusive [activator, single point]",–
c1ccc(-c2n[nH]c(-c3ccccn3)n2)cc1,"inconclusive [activator, partial curve, poor fit]",–
Nc1ccccc1-c1nnc(-c2ccc(-c3ccccc3)cc2)o1,"inconclusive [activator, partial curve, poor fit]",–
COc1ccc(Nc2nc(-c3cccs3)nc3ccccc23)c(OC)c1,–,inactive: -2.53%
CCCCc1ccc(NC(=S)Nc2cccnc2)cc1,"inconclusive [activator, single point]",–
Cc1nn(C)c(C)c1CCC(=O)N1CCCC(C(=O)c2cccc(OC(C)C)c2)C1 (centres undefined),–,inactive: 4.33%
CCOc1ccccc1NC(=O)c1nnn(-c2ccc3c(c2)OCCO3)c1N,–,inactive: 4.99%
Nc1nn(-c2ccccc2)c(N)c1N=Nc1cccc(F)c1,"inconclusive [activator, partial curve, poor fit]",–
Cc1ccc(NC(=O)c2cccs2)cc1,"inconclusive [activator, partial curve, poor fit]",–
COc1ccc(Br)cc1C1Nc2cccc3cccc(c23)N1,"inconclusive [activator, single point]",–
CCN(CC)C(=O)CSc1nnc(-c2c[nH]c3ccccc23)o1,"inconclusive [activator, single point]",–
COc1cccc(/C=C2\SC(=S)N(C(C)C(=O)NC3C=CS(=O)(=O)C3)C2=O)c1 (centres undefined),"inconclusive [activator, single point]",–
COc1ccc(CN(C(=O)c2cc3ccccc3oc2=O)C2CCS(=O)(=O)C2)cc1OC (centres undefined),"inconclusive [activator, full curve, poor fit]",–

Compound,Potency,"activity change, positive = activation"
Cc1cccc(NC(=O)c2onc3c2CCCC3)n1,"inconclusive [activator, full curve, poor fit]",–
Cc1csc(NC(=S)Nc2cccc(Cl)c2)n1,"inconclusive [activator, partial curve, poor fit]",–
Cc1nc2ccc(Br)cn2c1C(=O)N/N=C\c1ccc(C(C)C)cc1,–,inactive: -0.289%
COc1ccc(N(C(=O)c2cnccn2)C(C(=O)NCc2ccccc2)c2ccc(O)cc2)cc1 (centres undefined),"inconclusive [activator, full curve, poor fit]",–
COc1ccc(NC(=O)CSc2nccn2C)c([N+](=O)[O-])c1,"inconclusive [activator, single point]",–
CCCN1CCc2c(sc(NC(=O)c3ccc(S(=O)(=O)N(C)c4ccccc4)cc3)c2C(=O)NC)C1,"inconclusive [activator, full curve]",–
COc1cc(C(=O)O/N=C(\N)Cc2ccc([N+](=O)[O-])cc2)cc(OC)c1OC,"inconclusive [activator, partial curve, poor fit]",–
COc1ccccc1N(C)S(=O)(=O)c1ccc(C(=O)NCC2CCCCC2)cc1,"inconclusive [activator, single point]",–
Cn1nnnc1Sc1ncnc2scc(-c3cc4ccccc4o3)c12,–,inactive: -41.8%
COc1cc(C=C(c2nc3ccccc3s2)c2nc3ccccc3s2)ccc1O,–,inactive: 6.52%
CCOC(=O)c1sc(N/N=C/c2ccccc2)nc1C,"inconclusive [activator, partial curve, poor fit]",–
CC1(C)CC(NC(=O)Cc2ccc(Cl)cc2)CC(C)(C)N1,"inconclusive [activator, single point]",–
CCOc1ccc(NC(=O)C2CCN(S(=O)(=O)c3ccc4c(c3)NC(=O)C(C)S4)CC2)cc1 (centres undefined),–,inactive: -6.97%
O=C(N[C@H]1/C=C\[C@@H](O)CCCC1)OCc1ccccc1,"inconclusive [activator, full curve, poor fit]",–
C[n+]1c(/C=C/c2ccc(O)cc2)ccc2ccccc21,"inconclusive [activator, full curve, poor fit]",–
O=C(CCS(=O)(=O)c1ccccc1)NC12CC3CC(CC(C3)C1)C2,"inconclusive [activator, partial curve, poor fit]",–
Cc1ccc(NC(=O)C2CCCN2S(=O)(=O)c2ccc(F)cc2)c(C)c1 (centres undefined),"inconclusive [activator, partial curve, poor fit]",–
CCN(C(=O)CCN1C(=O)/C(=C/c2ccccc2)SC1=S)C1CCS(=O)(=O)C1 (centres undefined),"inconclusive [activator, single point]",–
N#Cc1cc([N+](=O)[O-])ccc1NC(=O)COC(=O)C1CCC(=O)N1 (centres undefined),–,inactive: -0.288%
CCN(CC)c1ccc(/C=C2\NC(=O)NC2=O)cc1,"inconclusive [activator, single point]",–

# — PubChem BioAssay AID504706 (National Center for Advancing Translational Sciences (NCATS), 2011)
